Measured values reported in publication PMC4336329 (PLoS ONE, 2015).
Among all 310,000 compounds or so, about 14,000 (4.5%) showed an effect of 50% or more. Effects have a minus sign here. This is one part of the list.

Each molecule was assayed against human ether-à-go-go-related gene (hERG) potassium channel (human, UniProt Q12809) (assay: primary screen, population patch clamp on CHO cells stably expressing hERG).
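Also: peak tail current of the secondary pulse compared with the same well before compound.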

Chain of human ether-à-go-go-related gene (hERG) potassium channel (Q12809 whole entry, looked up): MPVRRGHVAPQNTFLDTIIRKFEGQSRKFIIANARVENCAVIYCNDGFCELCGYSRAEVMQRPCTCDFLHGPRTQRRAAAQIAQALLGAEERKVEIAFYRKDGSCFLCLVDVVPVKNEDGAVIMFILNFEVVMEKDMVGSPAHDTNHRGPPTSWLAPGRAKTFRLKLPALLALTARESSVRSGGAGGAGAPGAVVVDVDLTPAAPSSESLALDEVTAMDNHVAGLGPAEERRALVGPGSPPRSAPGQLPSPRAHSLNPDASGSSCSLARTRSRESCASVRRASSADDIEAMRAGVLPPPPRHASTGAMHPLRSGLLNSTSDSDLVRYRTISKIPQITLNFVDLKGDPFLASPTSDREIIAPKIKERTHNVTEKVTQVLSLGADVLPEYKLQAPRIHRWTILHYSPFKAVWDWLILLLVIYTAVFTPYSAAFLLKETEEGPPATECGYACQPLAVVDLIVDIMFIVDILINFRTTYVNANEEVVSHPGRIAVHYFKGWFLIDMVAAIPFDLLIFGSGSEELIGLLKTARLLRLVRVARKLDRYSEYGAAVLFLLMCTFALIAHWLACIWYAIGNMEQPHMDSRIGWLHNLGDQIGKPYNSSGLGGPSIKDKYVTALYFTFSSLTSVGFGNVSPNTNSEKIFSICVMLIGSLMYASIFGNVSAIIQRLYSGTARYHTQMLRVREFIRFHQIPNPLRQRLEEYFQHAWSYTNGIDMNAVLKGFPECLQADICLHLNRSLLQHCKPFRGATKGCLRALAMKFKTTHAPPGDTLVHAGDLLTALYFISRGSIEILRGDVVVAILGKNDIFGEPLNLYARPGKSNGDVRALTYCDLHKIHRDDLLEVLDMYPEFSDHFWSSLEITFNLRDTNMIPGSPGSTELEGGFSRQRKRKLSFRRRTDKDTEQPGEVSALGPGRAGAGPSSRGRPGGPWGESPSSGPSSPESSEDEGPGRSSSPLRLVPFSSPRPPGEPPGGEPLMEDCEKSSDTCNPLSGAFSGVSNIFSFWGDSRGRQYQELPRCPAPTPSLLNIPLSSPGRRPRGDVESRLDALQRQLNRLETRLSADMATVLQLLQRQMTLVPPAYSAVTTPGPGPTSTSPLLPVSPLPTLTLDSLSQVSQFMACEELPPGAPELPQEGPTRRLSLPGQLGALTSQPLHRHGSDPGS

**Q.** Which “hERG current change (%, negative = inhibition) at 10uM” value does the source give for `CCn1c(SCC(=O)N2CCN(c3ccccc3)CC2)nnc1-c1ccoc1C` here?
**A.** Its value is -27.5%.

**Q.** For `COc1ccc(C(C(=O)NC(C)(C)C)N(C(=O)CCC(=O)Nc2cc(C)on2)c2ccc(C)c(C)c2)cc1` (stereo not shown), which “hERG current change (%, negative = inhibition) at 10uM” value is on record?
**A.** The value was -8.53%.

**Q.** `CC(C)(C)N(Cc1ccccc1)C(=O)COC(=O)CN1C(=O)NC2(CCCC2)C1=O` was tested. Which “hERG current change (%, negative = inhibition) at 10uM” value did it give?
**A.** Its value is -0.475%.

**Q.** `CCC1Sc2ccc(S(=O)(=O)CCC(=O)Nc3ccc(C(=O)OC)cc3)cc2NC1=O` (stereo not shown) was tested. Which “hERG current change (%, negative = inhibition) at 10uM” value did it give?
**A.** The value was -4.39%.

**Q.** Which “hERG current change (%, negative = inhibition) at 10uM” value does the source give for `COc1ccc(-c2csc3ncnc(Cl)c23)cc1` here?
**A.** Its value is 7.9%.

**Q.** `COc1ccccc1CN(C)S(=O)(=O)c1cccs1` was tested. Which “hERG current change (%, negative = inhibition) at 10uM” value did it give?
**A.** Its value is 4.72%.

**Q.** With `Cc1cccnc1CCNC(=O)CC1C(=O)NCCN1CC1CCCCC1` (stereo not shown) as the molecule, how does the “hERG current change (%, negative = inhibition) at 10uM” value read?
**A.** Its value is 19.2%.

**Q.** Which “hERG current change (%, negative = inhibition) at 10uM” value does the source give for `N=C1S/C(=C\c2ccc(-c3cccc(Cl)c3)o2)C(=O)N1c1nccs1` here?
**A.** Its value is 11.6%.

**Q.** For `CCCCOC(=O)c1cccc(NC(=O)CCC(=O)O)c1`, which “hERG current change (%, negative = inhibition) at 10uM” value is on record?
**A.** The value was 3.59%.

**Q.** How did the “hERG current change (%, negative = inhibition) at 10uM” value turn out when `O=C(Nc1ccc(-c2cn3c(n2)SCC3)cc1)c1ccc2ccccc2n1` was run?
**A.** Its value is 4.3%.

**Q.** How did the “hERG current change (%, negative = inhibition) at 10uM” value turn out when `CCCCNC(=O)CCC(=O)N1CCN(C(c2ccccc2)c2ccccc2)CC1.Cl` was run?
**A.** The value was -7.34%.

**Q.** With `CC(NC(=O)Cc1ccc(F)cc1)c1ccc(F)cc1` (stereo not shown) as the molecule, how does the “hERG current change (%, negative = inhibition) at 10uM” value read?
**A.** Its value is 6.16%.

**Q.** With `CS(=O)(=O)c1ccc2nc(N)sc2c1` as the molecule, how does the “hERG current change (%, negative = inhibition) at 10uM” value read?
**A.** Its value is 0.827%.

**Q.** How did the “hERG current change (%, negative = inhibition) at 10uM” value turn out when `COC(=O)c1cnn(-c2ccccc2)c1N` was run?
**A.** The value was 8.06%.

**Q.** `C/C(=N\NC(=O)c1cccc(Cl)c1)c1cccc(NC(=O)C(C)C)c1` was tested. Which “hERG current change (%, negative = inhibition) at 10uM” value did it give?
**A.** The value was 5.63%.

**Q.** For `CCC(Sc1nc(=O)cc(N)n1CCc1ccccc1)C(=O)Nc1ccccc1C#N` (stereo not shown), which “hERG current change (%, negative = inhibition) at 10uM” value is on record?
**A.** Its value is 0.121%.

**Q.** `CCC[C@H]1CCCC/C=C\CCCC(=O)OCCN1C(=O)OC(C)(C)C` was tested. Which “hERG current change (%, negative = inhibition) at 10uM” value did it give?
**A.** The value was 4.48%.

**Q.** `COC(=O)c1ccccc1NC(=O)c1ccc(-c2ccccc2F)o1` was tested. Which “hERG current change (%, negative = inhibition) at 10uM” value did it give?
**A.** Its value is -3.45%.

**Q.** How did the “hERG current change (%, negative = inhibition) at 10uM” value turn out when `O=C1CC(N2CCN(S(=O)(=O)c3ccccc3)CC2)C(=O)N1c1ccccc1` (stereo not shown) was run?
**A.** The value was 1.87%.

**Q.** With `Cc1nc2ncnn2c(C)c1CCC(=O)N1CCc2ccccc2C1` as the molecule, how does the “hERG current change (%, negative = inhibition) at 10uM” value read?
**A.** The value was -63.4%.

**Q.** For `Br.CCS(=O)CCSC(=N)N` (stereo not shown), which “hERG current change (%, negative = inhibition) at 10uM” value is on record?
**A.** The value was 19.2%.

**Q.** How did the “hERG current change (%, negative = inhibition) at 10uM” value turn out when `COc1cc(S(=O)(=O)N2CCN(c3ccc(F)cc3)CC2)ccc1Cl` was run?
**A.** Its value is 0.968%.

**Q.** Which “hERG current change (%, negative = inhibition) at 10uM” value does the source give for `Cc1ccccc1Nc1c(-c2ccccc2)nc2ncccn12` here?
**A.** The value was -15.4%.

**Q.** For `O=C(NCCN1CCN(c2ccccc2)CC1)Nc1ccccc1Cl`, which “hERG current change (%, negative = inhibition) at 10uM” value is on record?
**A.** The value was -43.3%.

**Q.** How did the “hERG current change (%, negative = inhibition) at 10uM” value turn out when `COc1ccccc1C(=O)N/C(=C\c1ccc(Br)cc1)C(=O)NCCCO` was run?
**A.** The value was -34.3%.

**Q.** For `COc1ccc(OC)c(CCNC(=O)c2ccc3c(=O)[nH]c4c(C(=O)NC(C)C)sc(=S)n4c3c2)c1`, which “hERG current change (%, negative = inhibition) at 10uM” value is on record?
**A.** The value was 21.2%.

**Q.** For `O=C(N/N=C/c1cccc([N+](=O)[O-])c1)C1CC(=O)N(c2ccc(Br)cc2)C1` (stereo not shown), which “hERG current change (%, negative = inhibition) at 10uM” value is on record?
**A.** The value was -46.6%.

**Q.** Which “hERG current change (%, negative = inhibition) at 10uM” value does the source give for `CC(C)c1ccccc1-n1c(-c2cccnc2)n[nH]c1=S` here?
**A.** Its value is 10.1%.

**Q.** For `COc1cccc(/C=C2\SC(=S)N(NS(=O)(=O)c3ccc(C)cc3)C2=O)c1OC`, which “hERG current change (%, negative = inhibition) at 10uM” value is on record?
**A.** Its value is -13.4%.

**Q.** Which “hERG current change (%, negative = inhibition) at 10uM” value does the source give for `CC(=O)c1ccc(NC(=O)CCS(=O)(=O)c2ccc3c(c2)n(C)c(=O)c(=O)n3C)cc1` here?
**A.** The value was 16.5%.

**Q.** With `COC(=O)C(CCCCN1C(=O)C2C3C=CC(C3)C2C1=O)N1C(=O)C2C3C=CC(C3)C2C1=O` (stereo not shown) as the molecule, how does the “hERG current change (%, negative = inhibition) at 10uM” value read?
**A.** The value was 9.55%.

**Q.** `CN1CCC(=NNC(=O)C(=O)NC(C)(C)C)CC1` was tested. Which “hERG current change (%, negative = inhibition) at 10uM” value did it give?
**A.** The value was 3.61%.

**Q.** Which “hERG current change (%, negative = inhibition) at 10uM” value does the source give for `C(=NCCCN1CCOCC1)c1ccc2c(c1)OCO2` here?
**A.** The value was 15.7%.

**Q.** For `COc1ccc(CNCc2ccc3c(c2)OCO3)cc1Br.O=C(O)C(=O)O`, which “hERG current change (%, negative = inhibition) at 10uM” value is on record?
**A.** The value was -23.1%.

**Q.** Which “hERG current change (%, negative = inhibition) at 10uM” value does the source give for `COc1ccc(C2c3c(ncn(CCN4CCOCC4)c3=N)Oc3ccc4ccccc4c32)cc1OC` (stereo not shown) here?
**A.** Its value is -16.6%.

**Q.** Which “hERG current change (%, negative = inhibition) at 10uM” value does the source give for `CC(C)(C)c1csc(N/N=C/c2cccnc2)n1` here?
**A.** The value was -17.6%.

**Q.** With `O=C(COc1ccc2ccccc2c1)N/N=C/C1CC=CCC1` (stereo not shown) as the molecule, how does the “hERG current change (%, negative = inhibition) at 10uM” value read?
**A.** Its value is 1.93%.

**Q.** How did the “hERG current change (%, negative = inhibition) at 10uM” value turn out when `O=C(C1CCCN(c2ncnc3c2nc2n3CCCCC2)C1)N1CCN(c2cccc(Cl)c2)CC1` (stereo not shown) was run?
**A.** Its value is -72.8%.

**Q.** Which “hERG current change (%, negative = inhibition) at 10uM” value does the source give for `O=C(c1cc2ccccc2cc1O)N1CCN(c2ccccc2O)CC1` here?
**A.** Its value is -16.5%.

**Q.** Which “hERG current change (%, negative = inhibition) at 10uM” value does the source give for `CCOC(=O)CSc1nc2c(cnn2-c2ccc(F)cc2)c(=O)[nH]1` here?
**A.** Its value is 20.8%.

**Q.** With `COc1ccc(-n2c3c(c(=O)[nH]c2=O)C(C(F)(F)F)(C(F)(F)F)N=C(CC(C)C)N3)cc1` as the molecule, how does the “hERG current change (%, negative = inhibition) at 10uM” value read?
**A.** Its value is -1.7%.

**Q.** For `O=C(COc1ccc2c(c1)oc(=O)c1ccccc12)NCCCN1CCOCC1`, which “hERG current change (%, negative = inhibition) at 10uM” value is on record?
**A.** The value was -15%.

**Q.** How did the “hERG current change (%, negative = inhibition) at 10uM” value turn out when `COc1ccc(CC(=O)N/N=C(\C)c2ccccn2)cc1` was run?
**A.** The value was 15.5%.

**Q.** With `CN(CC(=O)NCCc1ccc(S(N)(=O)=O)cc1)c1ccccc1` as the molecule, how does the “hERG current change (%, negative = inhibition) at 10uM” value read?
**A.** Its value is 4.43%.

**Q.** With `O=C(CN1C(=O)/C(=C\c2cccc(Cl)c2)Oc2ccccc21)N1CCN(c2ccccn2)CC1` as the molecule, how does the “hERG current change (%, negative = inhibition) at 10uM” value read?
**A.** The value was 19.8%.

**Q.** Which “hERG current change (%, negative = inhibition) at 10uM” value does the source give for `O=C(Nn1c(=O)[nH]c2ccsc2c1=O)c1ccccc1` here?
**A.** The value was 23.9%.

**Q.** For `O=c1c(C(c2ccc(Cl)cc2)c2c(O)nc3n(c2=O)CCS3)c(O)nc2n1CCS2`, which “hERG current change (%, negative = inhibition) at 10uM” value is on record?
**A.** Its value is 13.8%.

**Q.** Which “hERG current change (%, negative = inhibition) at 10uM” value does the source give for `COc1ccc(NP(=O)(Oc2cccc(C)c2)Oc2cccc(C)c2)cc1OC` here?
**A.** The value was 14.4%.

**Q.** With `COc1cccc(NC2=NCC(=O)N2Cc2cccs2)c1.Cl` as the molecule, how does the “hERG current change (%, negative = inhibition) at 10uM” value read?
**A.** Its value is 12.3%.

**Q.** For `CCC(C)(C)NC(=O)C(c1ccccn1)N(C(=O)c1csnn1)c1ccccc1` (stereo not shown), which “hERG current change (%, negative = inhibition) at 10uM” value is on record?
**A.** The value was 5.39%.

**Q.** `O=C1COc2ccc(C(=O)COC(=O)CNC(=O)C3CCCCC3)cc2N1` was tested. Which “hERG current change (%, negative = inhibition) at 10uM” value did it give?
**A.** The value was -7.17%.

**Q.** With `O=C(COc1ccc2c3c(c(=O)oc2c1)CCC3)N[C@@H](Cc1ccccc1)C(=O)O` as the molecule, how does the “hERG current change (%, negative = inhibition) at 10uM” value read?
**A.** The value was 16.6%.

**Q.** How did the “hERG current change (%, negative = inhibition) at 10uM” value turn out when `O=C(NCCCn1ccnc1)c1cccc(S(=O)(=O)NCc2ccccc2)c1` was run?
**A.** The value was -7.03%.

**Q.** Which “hERG current change (%, negative = inhibition) at 10uM” value does the source give for `Cn1cncc1C#Cc1ccc2cc(C3(O)CCCCC3)oc(=O)c2c1` here?
**A.** Its value is 9.66%.

**Q.** How did the “hERG current change (%, negative = inhibition) at 10uM” value turn out when `O=C(N/N=C/c1ccc(O)cc1)c1cc(-c2ccc3c(c2)OCO3)n[nH]1` was run?
**A.** The value was 8.33%.
